Source: the supplement of paper PMC4967469

What was measured:
Experiment in all cases: Viability of human cancer cell lines after 72 h of drug (GDSC screen)
GSK-1904529A = compound: CCc1cc(Nc2nccc(-c3c(-c4ccc(OC)c(C(=O)Nc5c(F)cccc5F)c4)nc4ccccn34)n2)c(OC)cc1N1CCC(N2CCN(S(C)(=O)=O)CC2)CC1 [GSK-1904529A]; conditions: top dose 1.024 µM; top dose inferred
Experimental: (§1)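 Human cancer cell lines in 384-well plates, medium with 10% serum, drug for 72 h over a 256-fold dose range (nine 2-fold or five 4-fold steps up to the top dose). Adherent lines were fixed and stained with the nucleic acid dye Syto60, suspension lines read with resazurin; signal relative to control wells, capped at 0 and 100%. One two-parameter sigmoid per drug and line, fitted in a mixed model over all curves with the slope shared within a line.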

Tipifarnib = compound: Cn1cncc1[C@@](N)(c1ccc(Cl)cc1)c1ccc2c(c1)c(-c1cccc(Cl)c1)cc(=O)n2C [Tipifarnib]; conditions: top dose 16 µM; top dose inferred
Experimental: as §1

PFI-1 = compound: COc1ccccc1S(=O)(=O)Nc1ccc2c(c1)CN(C)C(=O)N2 [PFI-1]; conditions: top dose 10 µM; top dose inferred
Experimental: as §1

NG-25 = compound: CCN1CCN(Cc2ccc(NC(=O)c3ccc(C)c(Oc4ccnc5[nH]ccc45)c3)cc2C(F)(F)F)CC1 [NG-25]; conditions: top dose 10.24 µM; top dose inferred
Experimental: as §1

Row | Cell Line | AUC (GSK-1904529A) | IC50 (GSK-1904529A) [µM] | AUC (Tipifarnib) | IC50 (Tipifarnib) [µM] | AUC (PFI-1) | IC50 (PFI-1) [µM] | AUC (NG-25) | IC50 (NG-25) [µM]
1 | WM35 (melanoma, adherent) | 0.971 | > 1.02 | 0.682 | 3.24 | 0.76 | 3.55 | 0.754 | 3.47
2 | PA-TU-8902 (pancreas, adherent) | 0.982 | > 1.02 | 0.794 | 8.77 | 0.978 | > 10 | 0.932 | > 10.2
3 | VAL (B-cell lymphoma, suspension) | 0.984 | > 1.02 | 0.664 | 2.86 | 0.905 | > 10 | 0.462 | 0.505
4 | PA-TU-8988T (pancreas, adherent) | 0.983 | > 1.02 | 0.731 | 4.56 | 0.769 | 3.79 | 0.915 | > 10.2
5 | SW48 (large intestine, adherent) | 0.985 | > 1.02 | 0.766 | 5.88 | 0.817 | 5.55 | 0.866 | 9.11
6 | 8505C (thyroid, adherent) | 0.957 | > 1.02 | 0.4 | 0.524 | 0.86 | 9.25 | 0.835 | 7.32
7 | JEG-3 (urogenital system, adherent) | 0.964 | > 1.02 | 0.738 | 4.41 | 0.947 | > 10 | 0.991 | > 10.2
8 | HCC-44 (lung adenocarcinoma, adherent) | 0.961 | > 1.02 | 0.493 | 0.957 | 0.761 | 3.48 | 0.836 | 6.58
9 | CS1 (bone, adherent) | 0.983 | > 1.02 | 0.772 | 6.92 | 0.937 | > 10 | 0.784 | 4.89
10 | SW1271 (small cell lung carcinoma, adherent) | 0.961 | > 1.02 | 0.499 | 0.992 | 0.91 | > 10 | 0.764 | 4.27
11 | DU-145 (prostate, adherent) | 0.971 | > 1.02 | 0.757 | 6.09 | 0.861 | > 10 | 0.856 | 9.81
12 | SK-HEP-1 (liver, adherent) | 0.97 | > 1.02 | 0.359 | 0.42 | 0.865 | 7.9 | 0.875 | 8.91
13 | UACC-62 (melanoma, adherent) | 0.983 | > 1.02 | 0.816 | 8.72 | 0.689 | 2.1 | 0.981 | > 10.2
14 | BFTC-905 (bladder, adherent) | 0.978 | > 1.02 | 0.615 | 1.97 | 0.661 | 1.63 | 0.865 | 7.03
15 | FTC-133 (thyroid, adherent) | 0.965 | > 1.02 | 0.832 | 11.7 | 0.919 | > 10 | 0.971 | > 10.2
16 | MG-63 (osteosarcoma, adherent) | 0.961 | > 1.02 | 0.568 | 1.58 | 0.788 | 5.14 | 0.98 | > 10.2

Row | Cell Line | AUC (GSK-1904529A) | IC50 (GSK-1904529A) [µM] | AUC (Tipifarnib) | IC50 (Tipifarnib) [µM] | AUC (PFI-1) | IC50 (PFI-1) [µM] | AUC (NG-25) | IC50 (NG-25) [µM]
17 | MFE-319 (endometrium, adherent) | 0.978 | > 1.02 | 0.577 | 1.62 | 0.886 | > 10 | 0.906 | > 10.2
18 | HCC1143 (breast, adherent) | 0.962 | > 1.02 | 0.777 | 9.26 | 0.914 | > 10 | 0.836 | > 10.2
19 | NCI-H1568 (lung adenocarcinoma, adherent) | 0.967 | > 1.02 | 0.49 | 0.934 | 0.841 | 9.59 | 0.981 | > 10.2
20 | MDA-MB-436 (breast, adherent) | 0.867 | > 1.02 | 0.721 | 5.05 | 0.911 | > 10 | 0.926 | > 10.2
21 | NCI-H1792 (lung adenocarcinoma, adherent) | 0.989 | > 1.02 | 0.791 | 6.4 | 0.894 | > 10 | 0.938 | > 10.2
22 | SW13 (adrenal gland, adherent) | 0.985 | > 1.02 | 0.699 | 3.66 | 0.862 | 8.75 | 0.988 | > 10.2
23 | RT-112 (bladder, adherent) | 0.981 | > 1.02 | 0.372 | 0.431 | 0.972 | > 10 | 0.8 | 5.38
24 | COLO-783 (melanoma, adherent) | 0.991 | > 1.02 | 0.987 | > 16 | 0.956 | > 10 | 0.979 | > 10.2
25 | 5637 (bladder, adherent) | 0.989 | > 1.02 | 0.502 | 1.02 | 0.896 | > 10 | 0.847 | 6.51
26 | HCC-78 (lung adenocarcinoma, adherent) | 0.983 | > 1.02 | 0.956 | > 16 | 0.816 | 6.77 | 0.875 | > 10.2
27 | NCI-H2087 (lung adenocarcinoma, semi-adherent) | 0.979 | > 1.02 | 0.62 | 2.2 | 0.886 | > 10 | 0.921 | > 10.2
28 | COR-L23 (large cell lung carcinoma, adherent) | 0.985 | > 1.02 | 0.795 | 7.21 | 0.948 | > 10 | 0.889 | > 10.2
29 | NUGC-4 (stomach, adherent) | 0.916 | > 1.02 | 0.726 | 4.38 | 0.736 | 2.94 | 0.763 | 3.69
30 | MFE-296 (endometrium, adherent) | 0.985 | > 1.02 | 0.521 | 1.15 | 0.885 | > 10 | 0.955 | > 10.2
31 | KYSE-180 (oesophagus, adherent) | 0.978 | > 1.02 | 0.671 | 2.92 | 0.955 | > 10 | 0.846 | 6.97

Lines with a small IC50 respond at low doses; a limit (>, <) means that the fit lies beyond the doses tested. AUC sums up the same curve from the lowest dose to the 256-fold higher top dose; values near 1 show little effect. An inferred top dose is not printed in the source and was worked back from the curve model.
